Reference: PubChem BioAssay AID624417 (National Center for Advancing Translational Sciences (NCATS), 2012)
Hit rate of the full screen: of about 410,000 compounds, about 6,400 (1.6%) were called active. The shares of active, inactive and inconclusive entries below differ from those in the screen. Calls follow the shape of the dose curve; as a rule, active = well fitted inhibition curve with a large enough effect; inconclusive = small, poorly fitted or top-dose-only effect; inactive = no such curve, though single readings can be large or run the other way. Potencies of inconclusive entries are left out as doubtful fits.
% is scaled to controls: 0 for no effect and ±100 for the full control effect; potency is read from the fitted curve at half-maximal effect; tags tell the direction and shape of the fitted curve.
Also: nearly all actives have a fitted effect of over 55% in size.

What follows are compounds tested against Glucagon-like peptide 1 receptor (Homo sapiens) (UniProt P43220) (assay: qHTS of GLP-1 Receptor Inverse Agonists (Inhibition Mode)). Details: HEK293 GLP-1R CRE-luciferase, luminescence, 24 h, GLP-1R form is constitutively active; activity change, negative = inhibition: at 38.3 µM (top of the series) unless noted.
Sequence of UniProt P43220 (P43220 whole entry, looked up): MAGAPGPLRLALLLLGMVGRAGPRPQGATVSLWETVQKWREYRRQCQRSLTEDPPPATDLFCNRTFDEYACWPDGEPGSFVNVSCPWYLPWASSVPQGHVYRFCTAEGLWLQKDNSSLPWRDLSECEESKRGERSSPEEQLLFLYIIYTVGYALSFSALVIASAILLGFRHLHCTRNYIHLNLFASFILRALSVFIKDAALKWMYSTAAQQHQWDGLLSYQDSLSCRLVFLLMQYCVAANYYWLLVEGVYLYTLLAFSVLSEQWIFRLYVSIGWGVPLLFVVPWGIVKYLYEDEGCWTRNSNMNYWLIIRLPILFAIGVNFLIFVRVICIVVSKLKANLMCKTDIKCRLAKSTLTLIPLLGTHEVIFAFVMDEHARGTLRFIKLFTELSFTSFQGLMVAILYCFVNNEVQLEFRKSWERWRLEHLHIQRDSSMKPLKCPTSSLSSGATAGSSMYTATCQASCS
How it was run: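 qHTS in 1536-well format: reporter HEK293 cells expressing constitutive GLP-1R activity in DMEM + 10% Nu serum, 24 hr with compounds at 37 deg C, luminescence read after 12 min with detection reagent.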
`COc1ccc(C2(CNC(=O)C(=O)Nc3ccc(F)cc3)CCCC2)cc1OC` was tested, and the “activity change, negative = inhibition” value was inactive: 17.1%. With `COC(=O)c1nnn(-c2cccc(C)c2)c1C(=O)OC` the “activity change, negative = inhibition” value was inactive: 15.3%. In the case of `Cc1ccc(NC(=O)C2CCC(CNS(=O)(=O)c3csc(C(N)=O)c3)CC2)cc1Cl` (centres undefined), the “activity change, negative = inhibition” value is reported as inactive: -0.593%. With `CCCSc1nc2sc3c(c2c(=O)n1Cc1ccccc1)CC(C)(CC)OC3` (centres undefined) the Potency was inconclusive [inhibitor, full curve, poor fit]. `CCOc1ccccc1NC(=O)CSc1nc2cc(O)ccc2c(=O)n1-c1ccc(OC)c(OC)c1` was tested, and the Potency was inconclusive [inhibitor, single point]. For `C=C(C)c1cccc(C(C)(C)NC(=O)Nc2cccnc2)c1`, the Potency was inconclusive [inhibitor, partial curve, poor fit]. `COc1ccc(Cl)cc1-n1nnc(-c2nsc(NC(=O)c3ccccc3Cl)n2)c1C` was tested, and the Potency was inconclusive [inhibitor, partial curve, poor fit]. `Oc1ccc(F)cc1-c1cc(-c2ccc3c(c2)OCCO3)n[nH]1` was tested, and the Potency was inconclusive [inhibitor, single point]. With `CSc1cccc(NC(=O)c2ccc(CN3CCc4ccccc4C3)cc2)c1` the Potency was inconclusive [inhibitor, partial curve, poor fit]. `CN(C)c1ccc(-c2nc3ccccn3c2/N=C/c2ccc(Br)cc2)cc1` was tested, and the Potency was inconclusive [inhibitor, single point]. With `Brc1ccc(OCCCCN2CCCCC2)cc1` the “activity change, negative = inhibition” value was inactive: -9.77%. For `O=C(CN1CCN(S(=O)(=O)c2ccccc2)CC1)Nc1ccc([N+](=O)[O-])cc1`, the Potency was inconclusive [inhibitor, single point]. With `CCc1cccc2sc(N(CCCN3CCOCC3)C(=O)CS(=O)(=O)c3ccccc3)nc12` the Potency was inconclusive [inhibitor, single point]. For `COc1ccc(CCC(C)NCc2cccc(Br)c2)cc1` (centres undefined), the Potency was inconclusive [inhibitor, single point]. For `CCCCOc1ccc(C(=O)NCC(=O)NCCOc2ccc(C)cc2)cc1`, the “activity change, negative = inhibition” value was inactive: -16%. `CCOc1ccccc1NC(=O)N1CCc2ccccc2C1` was tested, and the Potency was inconclusive [inhibitor, single point]. With `CCOc1ccc(NC(=O)c2ccccc2O)cc1` the Potency was inconclusive [inhibitor, single point]. `CCN1CCN(c2ncc3c(n2)CCN(Cc2ccc(OC(C)C)cc2)C3)CC1` was tested, and the Potency was active: 10 µM. For `CCOC(=O)C1(Cc2cccc(OC)c2)CCN(Cc2cccn2-c2ccccn2)CC1`, the Potency was inconclusive [inhibitor, single point].
